Source: the supplement of paper PMC3334620
Over roughly 33,000 sequences, “E-score (-0.5 to 0.5)” has its median near -0.04; the highest 2% begin near 0.36. Some of the results follow.

Molecular target: T1, Hmlalpha2 (UniProt P0CY09)
T1 sequence: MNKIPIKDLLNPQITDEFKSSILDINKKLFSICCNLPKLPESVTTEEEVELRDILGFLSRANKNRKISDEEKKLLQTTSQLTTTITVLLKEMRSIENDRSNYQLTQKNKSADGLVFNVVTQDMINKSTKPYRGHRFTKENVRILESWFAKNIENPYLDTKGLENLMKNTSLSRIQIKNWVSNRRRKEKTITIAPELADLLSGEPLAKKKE
Experiment: PBM E-score (8-mer binding enrichment) (E-score (-0.5 to 0.5)); higher = stronger / more preferred TF binding; most listed sequences are background and not binding sites
Conditions: protein concentration: 200 nM; construct: GST-full length
Procedure, shortened: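 E-scores (a modified Wilcoxon-Mann-Whitney statistic) were assigned by the Universal PBM Analysis Suite to every ungapped eight-base word pooled with its reverse complement. The input came from universal all-10-mer Agilent arrays made double-stranded by primer extension and probed with GST-tagged yeast transcription factors at about 100-200 nM. Fluorescent anti-GST detected bound protein, and masliner normalised the scans.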

Sequence | PBM E-score
CCCAGGCC | -0.227
AGCTCGAC | -0.0133
AGTTATAG | 0.182
GATGGGTA | -0.052
AAAGTGGC | -0.206
AATAATCG | 0.168
ATCAGGTC | 0.00309
GCTCATAA | -0.0832
AGTGTCCC | -0.152
CACCAGCC | -0.231
CTTTGACA | 0.247
ACGGATAC | 0.0886
TATAGCGA | -0.104
GGGCCATA | -0.105
CTTCGCAA | 0.0143
TCTCTTAA | 0.138
AAACATGA | 0.388
ACCGGTAG | -0.287
GGCCTGGA | -0.281
CACAAGTC | -0.141
CCGTCCCA | -0.196
ATGATAAT | 0.185
ATGCTCGA | -0.059
AGTGTGGC | -0.157
ATGTGGCC | -0.173

Sequence | PBM E-score
CATTCCAG | -0.107
GGAACCCA | -0.0867
CCTTCGCG | -0.175
CATTATGG | -0.2
CGCATGGA | -0.0665
ATCTTGTC | 0.133
CATTGTTA | 0.241
CTAACCGA | -0.0476
CTCTCTGA | -0.261
AGGATTGA | 0.0479
CTGGGCGC | -0.268
ACCCAATC | -0.25
AGAACCAA | -0.0821
GACTGGCA | -0.238
AGCAATCG | 0.108
CAATTGGG | -0.286
GAGTGATA | -0.0114
AACGCCAA | 0.068
CCCGCTCA | -0.322
ATGGCCGG | -0.236
AGAAGGAG | -0.23
CGCTATGC | -0.00943
GATATATA | 0.172
TGCTCTAA | -0.134
AGGCGCAG | -0.306

Sequence | PBM E-score
AGGGAAAT | -0.162
CGGCAACC | -0.299
ACTACTTC | -0.121
CAGTCTAC | -0.0874
GACCGCTA | -0.201
TAACATAA | 0.422
GGTATAAA | -0.0572
CCTTCATC | -0.227
GAATGCTA | -0.186
GGCTTCTA | -0.115
ACACCACC | -0.0537
GCCATTCC | -0.185
ATTCTGTG | 0.0603
GGACTCGA | -0.17
CGAAGCTC | -0.151
TACCACGA | 0.0931
ATACGGTC | -0.0524
ATTGGTTC | 0.1
ATTGCGCA | -0.118
CGGAATGA | -0.0672
ATGCAGCC | 0.0506
AGACAGAG | 0.0357
AAGCGAGG | -0.289
CGACACAC | 0.231
GATCGAGA | 0.0694

Sequence | PBM E-score
CAAAACCG | -0.0442
ATGAGCTG | -0.164
AGCACTAC | 0.0103
ATGTGTAC | 0.372
AAGTGCCT | -0.223
ACCCTGCG | -0.126
ATTCGCCC | -0.105
ATTAGCTA | 0.011
CAACCGGC | -0.126
CAAGCAGA | 0.0238
ATAGCGCC | 0.156
AAGGTGGG | -0.222
AACCTAAC | 0.0796
TGCCCAAA | -0.202
CCAGATAA | 0.0707
GGCATTTA | -0.0439
CCTGGTGC | -0.119
GCGGAGGA | -0.138
AAACGGAA | 0.00601
CAACTAAC | 0.201
CCAGACGC | -0.259
ACGCGTGG | 0.121
CCTATGGA | -0.138
AGTTGGAC | 0.0173
CTCCTTGA | -0.202

Sequence | PBM E-score
CACCAGGG | -0.258
GGCAATCA | -0.207
CATGTTGG | 0.358
ACCAAGCT | 0.0398
ACGAGTAT | 0.0171
AGTCCCAG | -0.0667
AAAAAATT | 0.142
CCGTTAAC | 0.0773
GGGCCGCA | -0.242
ATACCCTG | -0.0779
AGATCAAA | -0.112
GCCATCTA | -0.19
CCTGTAGA | 0.0876
AGAATAAG | 0.0592
CTAAGCCA | -0.199
ACTCCACG | -0.226
ATAATAAC | 0.187
CTGAGTAA | 0.115
AAATGAAG | -0.134
ACTGCTGA | -0.119
AACGCGCA | 0.317
ACAAACCA | 0.109
CCTCTAGA | -0.131
GCGAGTAC | 0.159
ATACTTGC | 0.164

Sequence | PBM E-score
TACGTGGA | 0.0888
CCTTGTCC | -0.183
ACAGGGGA | -0.0297
AGTCAGCA | 0.103
CGTTGAAG | 0.116
AGCTTAAT | 0.0138
CTCTGCTC | -0.202
GACTGGGC | -0.102
ACGTGGGG | -0.14
ATACGAGA | 0.128
GAATACTC | 0.115
GCGAGGTA | -0.00122
CGATCTGC | -0.098
GTCGATGA | -0.179
CCGAGGCC | -0.192
CAACTGTC | -0.068
ATACTTCC | -0.104
CTCCCGGC | -0.189
CGTTGTCA | 0.122
AAACGTCT | 0.0962
AAGTGGAT | -0.22
AGGTCAGA | -0.26
ATGCTCGG | -0.255
TTAGTCAA | 0.0139
GATCTGTA | 0.0253

Sequence | PBM E-score
GTATCTGA | 0.0164
AGGTCATG | 0.0302
CCGTGACA | -0.09
AGGCTTTG | -0.236
CGGGTGGC | -0.306
AACCCGAA | -0.195
CTACACTC | 0.145
TGCTACCA | -0.00589
ACCTCTTG | -0.105
TAGCACGA | 0.162
AGCCTAGC | -0.199
AACCCTCT | -0.115
CCGCGTCA | 0.107
AGACCCGA | -0.0455
AATCGAAG | 0.168
CGCCGGAC | -0.196
ATGGCTGA | -0.151
CAATCCTG | 0.0153
CACTCCGG | -0.0549
TAGCGAGA | -0.197
CCGATGCC | -0.326
ATTTGCGG | -0.123
CGGCCTCA | -0.0725
ACAACTTC | 0.128
ACACTTTG | 0.213

Sequence | PBM E-score
GAATTAGA | -0.0752
GCTGCAAA | 0.131
AGCTCGTC | -0.133
TTATGAAA | 0.112
GACTATCC | -0.282
ATTAGTAG | 0.115
ACACCTCT | 0.0306
CAGAGACA | -0.0824
GCCACGGA | -0.188
AACAACTT | 0.143
CTCCCATC | -0.242
CCGGGTAC | -0.116
CTCACCCA | -0.288
ATTAGACC | -0.162
CCGCAAAA | 0.0413
CAACGACC | -0.126
GTGGGAAA | -0.064
CCGATTCA | -0.167
CGGGCCCA | -0.187
AGGACCCC | -0.271
AATCGAAA | -0.0545
GCAACGAC | -0.0848
CTCATGTA | 0.454
AAAGCGGG | -0.178
CGTGACAC | 0.141

Sequence | PBM E-score
CGCGACTC | -0.165
TATAGAGA | 0.0261
CCATTTCA | -0.166
AGCAGATG | -0.175
ATATCGAC | -0.025
CGTATTCA | 0.3
CGATTACG | 0.274
AGGTTGAT | -0.169
ATACCAGC | -0.219
GACCTACC | -0.247
ATTTGAAG | -0.204
CAAGAGTA | 0.128
CCGACTCA | -0.32
CGATCGGA | -0.192
GAGACCAC | -0.0272
AGTTTGTA | 0.261
AATCGGGG | -0.203
GAGTTCGA | 0.0987
GCTAGCAA | -0.0632
